Among the data in PubChem BioAssay AID488969 (Vanderbilt High Throughput Screening Facility, 2010) are z-score values, retold here.

SMILES strings stand for the structures. Over roughly 110,000 compounds, “z-score” has its median near -0.1; the highest 2% begin near 2. Some of the results follow. Calls of active or inactive are those of the source.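 How the source made its calls: active means z-score in the third read window above 3 or below -3; inactive means the rest.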

For the assay, the target named is Metabotropic glutamate receptor 8 (Rattus norvegicus) (UniProt P70579). Briefly: rat mGluR8 modulators via GIRK flux, primary screen, cell-based, thallium flux, HTS (AID 488969). The note with it: HEK293 rat mGluR8, GIRK (G protein-gated inwardly rectifying potassium channel) thallium flux, FluoZin2; at 10 µM; stronger effect = higher value; submaximal glutamate (EC20) added with thallium.
Chain of UniProt P70579 (P70579 whole entry, looked up): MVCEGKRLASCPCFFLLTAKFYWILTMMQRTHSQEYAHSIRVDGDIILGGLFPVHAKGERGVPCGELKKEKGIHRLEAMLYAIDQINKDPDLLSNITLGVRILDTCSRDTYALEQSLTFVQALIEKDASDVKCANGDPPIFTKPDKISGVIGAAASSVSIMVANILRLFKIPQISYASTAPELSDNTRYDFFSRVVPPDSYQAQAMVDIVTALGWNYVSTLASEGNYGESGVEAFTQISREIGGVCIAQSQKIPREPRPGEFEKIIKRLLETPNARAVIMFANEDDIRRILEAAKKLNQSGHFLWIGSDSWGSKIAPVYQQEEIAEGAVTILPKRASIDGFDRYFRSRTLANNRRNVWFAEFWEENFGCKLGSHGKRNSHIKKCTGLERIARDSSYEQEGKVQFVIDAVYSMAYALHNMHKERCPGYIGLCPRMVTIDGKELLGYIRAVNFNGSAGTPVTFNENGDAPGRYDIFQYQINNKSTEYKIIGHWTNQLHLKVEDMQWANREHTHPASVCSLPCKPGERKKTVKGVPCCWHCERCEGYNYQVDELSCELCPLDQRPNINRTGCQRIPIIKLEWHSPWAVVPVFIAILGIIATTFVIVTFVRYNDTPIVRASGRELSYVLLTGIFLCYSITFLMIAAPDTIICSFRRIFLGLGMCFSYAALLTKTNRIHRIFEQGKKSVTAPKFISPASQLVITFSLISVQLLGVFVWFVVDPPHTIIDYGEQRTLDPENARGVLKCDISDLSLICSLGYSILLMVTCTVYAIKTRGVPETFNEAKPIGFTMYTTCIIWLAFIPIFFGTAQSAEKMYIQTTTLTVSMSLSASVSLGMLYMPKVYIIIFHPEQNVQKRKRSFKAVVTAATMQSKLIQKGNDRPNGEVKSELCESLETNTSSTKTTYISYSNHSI
In turn, `O=C(N/N=C/c1cc([N+](=O)[O-])ccc1O)/C(=C\c1cccs1)NC(=O)c1ccccc1` registered a z-score of 0.101.

With `CCC(=O)N1C(C(=O)O)CSC1c1ccc(OC)cc1` (configuration not stated), the z-score is -0.165.

As to `COC(=O)c1sccc1NC(=O)CSc1ccccc1NS(=O)(=O)c1ccc(Br)cc1`, the z-score amounted to 2.31.

The molecule `CCCc1[nH]nc2c1C(c1ccc(OC)c(Cn3nc(C)c(Br)c3C)c1)C(C#N)=C(N)O2` (configuration not stated) returned a z-score of 0.0911.

In the case of `O=C(c1ccc(CNS(=O)(=O)c2cccc(C(F)(F)F)c2)cc1)N1CCOCC1`, the z-score is -0.0878.

For `Cc1ccc(-n2c(C)cc(C(=O)CSc3n[nH]c(N)n3)c2C)cc1`, the z-score was -0.147.

In turn, `Nc1nonc1N1CCCCC1` came in with a z-score of 0.423.

With `COc1ccc(OCCC(=O)OCC(=O)NCc2ccccc2)cc1`, the z-score is -0.332.

For `Cc1cc2c(c(=O)o1)C1(C(=O)N(CC(=O)O)c3ccccc31)C(C#N)=C(N)O2` (configuration not stated), the z-score is -0.219.

In the case of `COc1cc(C(=O)NCc2ccco2)cc(OC)c1OC`, the z-score was -0.0377.

`CCOC(=O)N1CCN(S(=O)(=O)c2ccc(C)c(C)c2C)CC1`: the z-score was -0.151.

Take `CC(/C=N\N1CCN(Cc2ccc(C)cc2)CC1)=C\c1ccccc1`: the z-score is -0.207.

In the case of `CCCC/C(O)=N\S(=O)(=O)c1ccc(N=NN(C)C)cc1`, the z-score turned out to be 0.315.

In the case of `CC1CN(c2cc3nccnc3cc2F)CC(C)O1` (configuration not stated), the z-score was -0.122.

The molecule `O=C(OC(C(=O)NCc1cccs1)c1ccccc1F)c1ccco1` (configuration not stated) gave a z-score of 0.631.

For `CC1(C)C(=O)NCCN1C(=O)CSc1nccc(-c2ccc(Br)cc2)n1`, the z-score came out at 0.0525.

Molecule `CCn1c(SCC(=O)Nc2nc(C)cs2)nnc1C(C)NC(=O)c1ccccc1` (configuration not stated) displayed a z-score of 0.172.

In the case of `O=C(CO/N=C/c1ccccc1OC(F)F)N1CCc2ccccc21`, the z-score was -0.112.

The molecule `CCN(CC)c1ccc(Nc2nc(N3CCOCC3)c3ccccc3n2)cc1` returned a z-score of 1.01.

As for `Cc1c(CCC(C)C)c(=O)n2c([nH]c3ccccc32)c1C#N`, the z-score is -0.498.

The molecule `CCC(=O)N1CCN(c2ccccc2NC(=O)COc2cc(C)ccc2C(C)C)CC1` had a z-score of 0.696.

Regarding `Cc1cc(C)n(CC2CC(=O)N(c3cc(Cl)cc(Cl)c3)C2=O)n1` (configuration not stated), the z-score was -0.198.

For `O=C(c1ccccc1)N1CCSC1=S`, the z-score was found to be 0.162.

Turning to `CC(=O)NC1C(OCc2ccccc2)OC(CO)C(OC(C)=O)C1OC(C)=O` (configuration not stated), the z-score was -0.161.

As to `Cc1cc2c(cc1C)NC(c1nc3ccccc3[nH]1)C1=C(CC(C)(C)CC1=O)N2` (configuration not stated), the z-score is -0.125.

For the molecule `O=C(NCc1ccco1)c1ccc2c(c1)C(=O)N(C1CCCCC1)C2=O`, the z-score was -0.402.

`COc1ccnc(Oc2ccccc2)n1`: the z-score is -0.163.

In turn, `O=C(CSc1nc2ccccc2o1)N/N=C/c1ccccc1` showed a z-score of 0.038.

On to `Cc1sc2ncnc(Sc3ccccc3C(=O)Nc3ccccc3Cl)c2c1C`, for which the z-score was -0.59.

As for `Cc1ccc(-c2cc(-c3ccc4c(c3)OCO4)c(C#N)c(N)n2)o1`, the z-score is -0.218.

Take `COc1ccc2cc(C3(C)NC(=O)NC3=O)ccc2c1` (configuration not stated): the z-score is 0.398.

In the case of `CCCS(=O)(=O)N1CCCC(C(=O)NCCN2CCOCC2)C1` (configuration not stated), the z-score was -0.118.

Regarding `O=C(c1ccccc1)N1CCN=C1SCc1ccc([N+](=O)[O-])cc1`, the z-score is -0.311.

As for `CCCCCn1c(=O)[nH]c2cc(C(=O)NCc3ccco3)ccc2c1=O`, the z-score is -0.38.

With `O=C(/C=C/c1ccccc1)N(c1ccccn1)C1CCCCC1`, the z-score is 0.69.

With `CCOC(=O)C(=CNc1cc(C)nn1-c1ccc(Cl)cc1)C(=O)OCC`, the z-score was -1.9.

Take `CCC(=O)Nc1ccc(N2CCN(C(=O)c3ccccc3C)CC2)cc1`: the z-score is -0.238.

Take `O=C(CC12CC3CC(CC(C3)C1)C2)NCc1ccncc1`: the z-score was -0.278.

Consider `Cc1ccc2cc(C#N)c(SCC(=O)Nc3ccc4sc(C)nc4c3)nc2c1`, for which the z-score was -0.000728.

Regarding `CS(=O)(=O)N(CC(=O)N1CCc2ccccc2C1)c1ccc2c(c1)OCO2`, the z-score was -0.346.

In the case of `C=CCNC1=C(Cl)C(=O)N(c2ccccc2Cl)C1=O`, the z-score was -0.236.

For `COC(Cc1nnc(SC)n1-c1ccccc1)OC`, the z-score was -0.151.

Turning to `Cc1cc(C(=O)COC(=O)CCc2nc3ccccc3s2)c(C)n1C`, the z-score was -0.552.

Consider `C/C(=N\NC(=O)c1cccc(F)c1)c1ccc(Br)s1`, for which the z-score was active: 7.29.

Consider `CCOC(=O)c1ccc(C(=O)OCC)nc1`, for which the z-score is -0.364.

For `S=C(NCCCN1CCOCC1)Nc1ccc(Cl)c(Cl)c1`, the z-score is 0.303.

For `Cc1sc2c(=O)n3c(nc2c1C(=O)NC1CCCCC1)CCCCC3`, the z-score was -1.83.

Consider `Cc1nc2sc3c(O)cc(=O)[nH]c3c2c(C)c1C`, for which the z-score is -0.397.

For the molecule `COC(=O)c1sc2ncccc2c1OCc1c(Cl)cccc1Cl`, the z-score was -0.265.

On to `O=C(Nc1ccc(Cc2ccncc2)cc1)c1ccc(Br)o1`, for which the z-score was 0.733.

Turning to `O=C(CSc1nc2[nH]ncc2c(=O)[nH]1)N1CCCCC1`, the z-score was -0.0195.

`O=C(CN1/C(=C(/O)c2ccccc2)C(=O)c2ccccc2S1(=O)=O)c1ccccc1` came in with a z-score of 0.815.

In the case of `Cc1nc2cc(NC(=O)NCc3ccco3)ccc2n1C`, the z-score was -0.175.

Turning to `CC(=O)c1c(C)oc2c1C(=O)c1ccccc1C2=O`, the z-score was -0.307.

`CC1=CC2=NC(=O)/C(=C\c3cccn3CCOc3cc(C)ccc3C)C(=N)N2O1` returned a z-score of 0.0909.

With `CC(C)CCN1CC(O)=C(c2nc3ccccc3[nH]2)C1=N`, the z-score was -0.12.

`O=C(OCc1ccc(COC(=O)c2ccccn2)cc1)c1ccccn1` showed a z-score of 0.329.

Turning to `Cc1ccc(CCCOC(=O)C[N+]2(C)CCOCC2)cc1`, the z-score is -0.165.

On to `O=C(Cc1ccc(S(=O)(=O)N2CCCC2)s1)Nc1nc2c(s1)CCCC2`, for which the z-score was -0.194.

In the case of `Cc1[nH]c2ccccc2c1/C=N/Nc1nc(Nc2ccc(F)cc2)nc(N2CCOCC2)n1`, the z-score is -0.0514.

`CCN(CC)S(=O)(=O)c1ccc(NS(=O)(=O)c2ccc(OC)c([N+](=O)[O-])c2)cc1` came in with a z-score of 0.00128.

Consider `C/C(=N/OC(=O)c1ccc(C)cc1)c1ccc(N2C(=O)C3CCCCC3C2=O)cc1` (configuration not stated), for which the z-score is -0.131.

As for `Nc1[nH]ncc1N=Nc1ccc(Cl)cc1`, the z-score was -0.104.

Regarding `O=C(NCc1ccccc1)NC1(C(=O)N2CCOCC2)CCCCC1`, the z-score came out at 0.474.

As to `COc1cc2c(cc1NC(=O)CSc1cccc[n+]1[O-])oc1ccccc12`, the z-score is -0.555.

For `CCn1c(SCC(=O)N2CCCC2)nnc1-c1ccc(S(=O)(=O)N2CCCCCC2)cc1`, the z-score was determined as 0.107.

On to `O=C(Nc1ccncc1)c1ccc(NS(=O)(=O)c2cccc(F)c2)cc1`, for which the z-score is -0.27.

As for `O=C(O)CCn1cc(/C=C\C(=O)c2ccc(Cl)cc2)c(-c2cccc(Br)c2)n1`, the z-score is -0.968.

For the molecule `COc1ccc(C(=O)CSc2nc3nc(C)cc(C)n3n2)cc1OC`, the z-score was -0.0891.

As for `COC(=O)c1[nH]c2ccc(Br)cc2c1NC(=O)CN1CCCc2ccccc21`, the z-score was -0.247.

In turn, `Cc1c(C(=O)NCc2ccco2)oc2ccc(S(=O)(=O)N3CCC4(CC3)OCCO4)cc12` gave a z-score of 0.341.

Take `CN(c1ccccc1)S(=O)(=O)c1cccc(NC(=O)CSc2ncn[nH]2)c1`: the z-score came to 1.2.

On to `CSc1ncc(F)c(N(CCO)CCO)n1`, for which the z-score was -0.0744.

As to `O=C(CCCn1c(=S)[nH]c2cc3c(cc2c1=O)OCO3)N1CCN(c2ccccc2F)CC1`, the z-score was -0.102.

As for `O=C(NCc1ccccn1)NC1CCCCC1`, the z-score was found to be 0.0749.

With `O=C1c2ccccc2-c2onc3ccc(NCCCn4ccnc4)c1c23`, the z-score is -0.181.

Molecule `O=C(N/N=C/c1ccc(N2CCOCC2)o1)c1cccc(C(F)(F)F)c1` registered a z-score of 0.388.

On to `COc1ccc(-c2csc(N(Cc3ccccc3)C(=O)COc3ccc(Cl)cc3)n2)cc1`, for which the z-score was -0.144.

On to `O=C(Nc1cccc2ncccc12)c1ccc(F)cc1`, for which the z-score was -0.316.

In the case of `Cc1nn(C)cc1C(C(=O)NC1CCCCC1)N(C(=O)Cc1cccs1)c1ccc(Cl)cc1` (configuration not stated), the z-score was -0.0751.

`CCOc1ccc(N2CC(C(=O)Nc3ccc(F)cc3F)CC2=O)cc1` (configuration not stated) came in with a z-score of 0.151.

Regarding `Oc1ccc(Br)cc1C=Nc1ccc2c3c(cccc13)CC2`, the z-score is -0.099.

`CC(NCCO)C(=O)C12CC3CC(CC(C3)C1)C2` (configuration not stated) registered a z-score of 0.176.

The molecule `O=C(c1cc(Cl)cc(Cl)c1)N1CCOCC1` had a z-score of 0.403.

As for `COC(=O)C(C(=O)OC)c1ccccc1[N+](=O)[O-]`, the z-score is -0.0607.

Take `CCN(c1ccccc1)S(=O)(=O)c1ccc(OCC(=O)Nc2cc(C)on2)cc1`: the z-score was -0.379.

Consider `COc1ccc(NC(=O)c2ccco2)cc1NC(=O)c1c(F)c(F)c(OC)c(F)c1F`, for which the z-score stood at 0.319.

Take `CC(=O)NC(C)c1nc2ccccc2n1Cc1ccccc1F` (configuration not stated): the z-score is -0.0574.

Consider `O=C(c1cc(-c2cccs2)on1)N1CCOCC1`, for which the z-score turned out to be 0.486.

Turning to `O=C(c1csc(Nc2ccccc2Cl)n1)N1CCCC1`, the z-score is -0.275.

As for `CC(C(=O)NCCN1CCOCC1)c1ccc([N+](=O)[O-])cc1` (configuration not stated), the z-score was -0.211.

As to `CSC(=Nc1ccccc1)C1=C(O)COC1=O`, the z-score was -0.125.

For `C=CCOc1c(Cl)cc(CNc2ccc(N(C)C)cc2)cc1OC`, the z-score was -0.107.

On to `[O-][n+]1c2c(c3c4non(O)c4ccc31)CCCC2`, for which the z-score is -2.08.

Regarding `Cc1cccc(C(=O)NNC(=O)CN2C(=O)c3ccccc3C2=O)c1`, the z-score was -0.653.

With `CCN(CC)C(=O)CSC1=Nc2ccccc2C2=NC(Cc3c[nH]c4ccccc34)C(=O)N12` (configuration not stated), the z-score was 0.0528.

As for `COc1cc(C(=O)Oc2ccccc2/C=N/NC(=O)c2ccc(C)c(Cl)c2)cc(OC)c1OC`, the z-score is -0.209.

`COC(=O)c1ccc(C2/C(=C(\O)c3cccc(OC)c3)C(=O)C(=O)N2CCCN2CCOCC2)cc1` (configuration not stated): the z-score is -0.351.

With `CC(C)(C)C1CCC(=O)C(C2(O)C(=O)Nc3ccccc32)C1` (configuration not stated), the z-score was -1.21.

Regarding `COc1cccc(-c2cc(C(=O)Nc3cc(C)nn3-c3ccccc3)no2)c1`, the z-score stood at 0.234.

Take `O=C(COc1ccc(F)cc1Br)N1CCc2ccccc21`: the z-score is -0.0164.

Take `COc1ccc(-n2c(C)c(C(C)=O)c3cc(O)ccc32)cc1`: the z-score worked out at 0.00998.

Regarding `CCOc1cc(-c2cc(-c3ccccc3)nc(N)c2C#N)ccc1O`, the z-score was -0.618.

Consider `O=C(CCc1ccc(S(=O)(=O)N2CCOCC2)cc1)Nc1nc(COc2ccccc2)cs1`, for which the z-score is -0.371.

Consider `CCCC(=O)NC1=C(C#N)C2(CCCCC2)Cc2ccccc21`, for which the z-score was -0.412.

In the case of `O=C(NNC(=O)C1CC1)c1ccc(-c2ccccc2)cc1`, the z-score was -0.112.

Turning to `O=C(Cc1ccccc1)N/N=C/c1ccccn1`, the z-score was -0.244.

Consider `C/C(Nc1ccccc1)=C(/C#N)C(N)=O`, for which the z-score was -0.169.

For `O=C(NCc1ccco1)c1ccccc1-c1ccccc1`, the z-score is -0.248.

For the molecule `CC(C)Oc1ccc(N2C(=O)c3ccccc3C2=O)cc1`, the z-score was -0.397.

In the case of `O=C(NNC(=O)C1CCN(Cc2cccc(F)c2)CC1)c1cccc(Cl)c1`, the z-score was -0.147.

Regarding `Cc1ccc(OCC(=O)Sc2ccc(C)cc2)cc1`, the z-score came out at 0.238.
